Values joined by “and” are separate entries in the source; they are usually repeats but may differ in a detail not shown here. Equal entries are not always repeated.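 Cultured in 96-well plates, cells were exposed to test compound for 48 hours across five concentrations. Here, GI50 denotes the concentration required for 50% inhibition of growth. TGI denotes the concentration required for complete inhibition of growth.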 Active and inactive are the calls of the source. No stated cut-off is given here; in the data, active means GI50 below about 0.43 µM; inactive means the rest.
Each compound was assayed on NCI-H322M lung (assay: growth of human tumour cells (NCI), 48 h).

Compound	GI50	TGI	outcome
CC[C@@]1(c2ccccc2)C2=C(CC(C)(C)CC2=O)Nc2[nH]ncc21	> 100 µM	> 100 µM	–
Nc1nc(I)nc2c1ncn2C1OC(COS(N)(=O)=O)C(O)C1O (stereo unspecified)	–	< 0.0159 µM	–
O=C(NC12CC3CC(CC(F)(C3)C1)C2)c1ccccc1	–	> 100 µM	–
N#CC1C(=O)N(c2ccccc2)NC12OC(=O)c1ccncc12 (stereo unspecified)	–	> 20 µM	–
CN(C)c1ccc(/C=C2/NC(=S)NC2=O)cc1	–	> 100 µM	–
CCCC/C=C/C/C=C/CCCCCCCCC(=O)OCC1CCCN2CCCCC12 (stereo unspecified)	–	> 100 µM	–
C=C(C[C@](O)(C(=O)/C=C/c1ccc(Cl)cc1)C(=O)OC)c1ccccc1	2.44 µM	10 µM	–
CCOCC(=O)N[C@H]1CCc2cc(OC)c(OC)c(OC)c2-c2ccc(OC)c(=O)cc21	–	2.1 µM	–
O/N=C/c1ncccc1C1OCCO1	–	> 100 µM	–
CC(C)(CO)N1CCN(C(=S)Nc2ccccc2)CC1	–	> 100 µM	–
O=c1cc(N2CCNCC2)nc2ccccn12	–	> 100 µM	–
C[N+](C)(C)CCCSc1nc2ccccc2[nH]1	–	> 100 µM	–
CCC/C=C/c1cc2c(cc1O)CC[C@@H]1[C@@H]2CC[C@]2(C)[C@@H](O)CC[C@@H]12	–	31.7 µM	–
O=C1N[C@H]2c3c(Cl)sc(Cl)c3[C@@H](O)[C@H]2O1	–	> 100 µM	–
O=C1N=C(SC2OC(CO)C(O)C(O)C2O)S/C1=C\c1ccccc1 (stereo unspecified)	–	> 100 µM	–
Cc1cc(-c2cnn3c(NCC4CC(C)(O)C4)cc(Oc4cccnc4)nc23)ccc1C(=O)NC1CC1 (stereo unspecified)	2.11 µM	> 100 µM	–
Oc1c2cc(Cl)cc1COCc1cc(Cl)cc(c1O)COCc1cc(Cl)cc(c1O)COC2	–	> 100 µM	–
COc1ccc(N2C(=O)/C(=C/c3ccc(N(CCC#N)CCC#N)cc3C)N=C2c2cc([N+](=O)[O-])ccc2Cl)cc1	–	> 56.2 µM	–
O=C(CCc1cc(-c2ccccc2)nc(=S)[nH]1)N(Cc1ccccc1)Cc1ccccc1	–	> 100 µM	–
COc1ccc(CC2CCc3nc(N)nc(N)c3C2)cc1OC (stereo unspecified)	–	> 88.5 µM	–
CC(=O)O[C@H]1C(=O)[C@@]2(C)C(C(OC(=O)c3ccccc3)[C@]3(O)CC(OC(=O)[C@H](OC(=O)CCC(=O)O)C(NC(=O)c4ccccc4)c4ccccc4)C(C)=C1C3(C)C)C1(OC(C)=O)COC1C[C@@H]2O (stereo partly specified)	< 0.0164 µM and 0.0371 µM	> 100 µM	–
COc1ccc(NC(=O)CC(=O)N/N=C/c2ccc(N(CCC#N)S(C)(=O)=O)cc2)cc1	–	> 100 µM	–
CCCCCCCCCCCCN(CC(O)C(O)C(OC1OC(CO)C(O)C(O)C1O)C(O)CO)C(=O)CCCCCCCCCCC (stereo unspecified)	–	40.6 µM	–

Compound	GI50	TGI	outcome
O=C(Nc1ccncc1)C(=O)c1cn(S(=O)(=O)c2cccc(F)c2)c2ccccc12	31.6 µM	> 100 µM	–
O=[N+]([O-])c1ccc2c(c1)S(=O)(=O)N1Cc3ccccc3CCN21	–	> 100 µM	–
COc1ccc(C(=O)C#Cc2cnc(OC)nc2OC)cc1	–	28.5 µM	inactive
N#CC(C#N)=C1Nc2ccccc2S1	22 µM	60.7 µM	–
CCCCCCCCn1ccc2cc(NC(=O)Cn3cc(CN4CCCC4)nn3)ccc21	1.63 µM	3.15 µM	–
COc1ccc(-c2nc(-c3nc4ccc(Cl)cc4[nH]3)c3ccccn23)cc1	5.63 µM	27.6 µM	–
Cc1ccc(S(=O)(=O)c2ccsc2NC(=O)C(F)(F)F)cc1	–	> 100 µM	–
O=C(CC1C(=O)NN(c2ccc(Br)cc2)C1=O)c1cc(O)ccc1O (stereo unspecified)	12.4 µM	> 50 µM	–
O=c1oc2ccccc2cc1-c1csc(Nc2ccc(F)cc2)n1	–	16.1 µM	–
COCCCNC(=O)C1C(=O)C(=O)N(CCCOC)C1=O (stereo unspecified)	–	> 100 µM	–
CC(C)(C)/C(=N\Nc1nc2ccccc2[nH]1)c1ccccn1	–	> 100 µM	–
O=C(O)CCNC1CCCCC1	> 100 µM	> 100 µM	–
CC(C)NC(NC(C)C)=C(S(=O)(=O)C(F)(F)C(F)(F)C(F)(F)C(F)(F)F)S(=O)(=O)C(F)(F)C(F)(F)C(F)(F)C(F)(F)F	–	> 100 µM	–
N#CSC1CCCCNC1=O (stereo unspecified)	–	31.7 µM	–
CCOC(=O)/C(=C\c1ccccc1)C(=O)O	–	> 100 µM	–
COc1ccccc1N(CN1C(=O)CCC1C(=O)O)C(C)=O (stereo unspecified)	–	> 100 µM	–
COC(=O)C1=C(O)C(C(=O)OC)[C@]2(O)[C@H](C(=O)OC)[C@H]1C[C@@H](c1ccc(OC)c(OC)c1)[C@H]2C(=O)OC (stereo partly specified)	–	> 100 µM	–
CCOC(=O)N(NC(=O)NC(C)C)c1ccccc1	–	> 100 µM	–
O=C1c2[nH]c3ccc(Br)cc3c2CCN1Cc1ccc(Cl)cc1	–	30.5 µM	–
N#C/C(=C\c1ccc2ccccc2c1)c1ccccc1	–	> 100 µM	–
CCOC1Oc2ccc(C)cc2C(=O)/C1=C\Nc1ccc(C(N)=O)cc1 (stereo unspecified)	23.6 µM	54.2 µM	–
CCOC(=O)C1(Cc2ccccc2)C=CN(C(=O)c2ccccc2)C=C1	–	> 100 µM	–
O=C1C(Cl)=C(NCCN2CCOCC2)C(=O)c2ncccc21	1.74 µM	2.75 µM and 3.27 µM	–

Compound	GI50	TGI	outcome
CC(C)(C)c1cc(CCC(=O)Nc2ccc(Cl)cc2)nc(NC#N)n1	–	> 100 µM	–
CC(=O)N(C(C)=O)n1c(Cc2ccc(Cl)cc2)n[nH]c1=O	–	> 100 µM	–
CN(CCC(=O)O)C1=Nc2ccc(Cl)cc2C(c2ccccc2)=[N+]([O-])C1	–	> 100 µM	–
CCOC(=O)NC(=O)c1cn(CCNCCO)c(=O)[nH]c1=O	–	> 100 µM	–
COC1(C)CP(=O)(OC(C)C)CC(C)=C1Cl (stereo unspecified)	–	55.6 µM	–
c1ccc(-c2cn3c(nc4ccccc43)c(-c3ccccc3)n2)cc1	–	> 100 µM	–
CC1OC(OC2C(OC(=O)[C@]34CCC(C)(C)CC3C3=CCC5[C@@]6(C)C[C@H](O)[C@H](OC7OC(CO)C(O)C(O)C7N)[C@@](C)(C(=O)O)C6CC[C@@]5(C)C3(C)CC4)OCC(O)C2O)C(O)C(O)C1OC1OCC(O)C(O)C1O (stereo partly specified)	–	> 100 µM	–
O=C(O)COCC(=O)N(CCOCCN(Cc1ccccc1)C(=O)COCC(=O)O)Cc1ccccc1	–	> 100 µM	–
O=C1NC(=O)C(CCC(=O)c2ccc3ccccc3c2)C(=O)N1	–	> 100 µM	–
O=C(CCc1nnc2sc(-c3ccc(Cl)cc3Cl)nn12)c1nc2ccccc2[nH]1	1.76 µM	3.74 µM	–
O=c1c2ccccc2[nH]c2c(Cl)cc(Cl)c(NC3CCCCC3)c12	–	> 100 µM	–
N#Cc1c(=O)n(-c2ccccc2)c(O)c2c(N)n[nH]c12	–	> 100 µM	–
C=C1[C@H](OC(C)=O)[C@H]2[C@@H](OC(C)=O)[C@@H](C)C[C@]2(C)C(=O)[C@H](C)/C=C/C(C)(C)C(=O)[C@H](OCC(C)C)[C@H]1OC(C)=O	–	> 25 µM	–
CCOC(=O)c1cc2c([nH]1)c(O)cc1c2ccn1Cc1ccccc1	–	46.6 µM	–
COc1cc(Nc2nc3ccccc3nc2-c2cccs2)cc(OC)c1OC	–	> 100 µM	–
COc1ccc(-c2onc(N)c2-c2cc(OC)c3c(c2)OCO3)cc1	6.38 µM	> 100 µM	–
Cc1nc(-c2cc3c(ccc4ccccc43)oc2=O)cs1	–	> 100 µM	–
O=S(=O)(SC1=NCCN1)c1ccc2ccccc2c1	–	> 100 µM	–
O=c1[nH]c(=O)n(CCOc2ccccc2)cc1Nc1ccccc1	–	> 100 µM	–
COc1cc(/C=C2/SC(c3ccccc3)N(c3ccccc3Cl)C2=O)cc(OC)c1OC (stereo unspecified)	–	> 100 µM	–
CCOC(=O)CCCNC(=O)CCCCC(=O)N(C)C	–	> 100 µM	–
CCOC(=S)SSSC(=S)OCC	–	> 100 µM	–
COC(=O)Nc1nc2ccc(Oc3ccc(NC(=O)Nc4cc(C(F)(F)F)ccc4F)cc3)cc2s1	> 25 µM	> 25 µM	–

Compound	GI50	TGI	outcome
CC(C)(C)C(=O)OCOP(=O)(OCOC(=O)C(C)(C)C)OCC1OC(n2ccc(=O)[nH]c2=O)C(N=[N+]=[N-])C1O (stereo unspecified)	–	19 µM	–
COc1cc(C(=O)CBr)c(OC)cc1C	–	> 100 µM	–
O=C(O)c1nn(-c2ccccc2-c2n[nH]c(=O)[nH]c2=O)c(=O)[nH]c1=O	–	> 100 µM	–
NC12CC3CC(C1)CC(C(=O)O)(C3)C2	–	> 100 µM	–
Cc1ccc(-c2nc3nc(-c4ccccc4)nc(N4CCCNCC4)c3o2)cc1	1.81 µM	3.2 µM	–
OC1(c2ccc(Cl)cc2)C(N2CCCC2)c2ccccc2C2=NCCN21 (stereo unspecified)	–	63 µM	–
O=C(N/N=C/C=C/c1ccccc1)[C@H](O)[C@@H](O)C(=O)N/N=C/C=C/c1ccccc1	–	> 100 µM	–
Nc1nccc(-c2c(-c3ccc(F)cc3)ncn2C2CCC(O)CC2)n1 (stereo unspecified)	8.08 µM	> 25 µM	–
[Cl-].[Rh+3].c1cnc2c(c1)ccc1cccnc12.c1cnc2c(c1)ccc1cccnc12.c1cnc2c(c1)ccc1cccnc12	–	> 100 µM	–
Cc1cc2cc3c(cc2c(-c2ccc([N+](=O)[O-])cc2)n1)OCO3	–	> 100 µM	–
CCCCC(=O)c1ccc2ccccc2c1O	–	> 100 µM	–
Cc1ccc(C(=O)NC(C)C)cc1-c1ccc(C(=O)NCC2CC2)cc1	> 25 µM	> 25 µM	–
c1nc(N2CC2)c2cnn(C3CCCCO3)c2n1 (stereo unspecified)	–	> 100 µM	–
COc1ccc2c(c1)C(=O)Cc1ccccc1CC2	–	> 100 µM	–
NC(=O)NS(=O)(=O)c1ccc(N2N=C(C(F)(F)F)CC2c2cc(C(F)(F)F)cc(C(F)(F)F)c2)cc1 (stereo unspecified)	10.2 µM	24.4 µM	–
CC(=N)OC1CC2CCC1(C)C2(C)C (stereo unspecified)	–	> 100 µM	–
O=[N+]([O-])c1ccc(C=NC2CCCCC2)cc1	–	> 100 µM	–
CCCn1c(=S)sc2c1nc(C)n1c(Nc3ccccc3)nnc21	4.3 µM	57.3 µM	–
CN(C)CCNC(=O)c1cccc2ccc(-c3ccncc3)nc12	–	22.3 µM	–
Cc1c(C)c(C)n(C2OC(CO)C(O)C(O)C2O)c(=S)c1C#N (stereo unspecified)	–	> 100 µM	–
NC(=S)N1N=C2c3ccccc3CC[C@@H]2[C@@H]1c1ccccc1	–	> 100 µM	–
